Here are results for 50 compounds from PMC3199943, “Screening the MayBridge Rule of 3 Fragment Library for Compounds That Interact with the Trypanosoma brucei myo-Inositol-3-Phosphate Synthase and/or Show Trypanocidal Activity” (Molecular Biology International, 2011).

SMILES strings stand for the structures. A value given as a limit tells only on which side of the number the result lay.

One assay has as its system cultured bloodstream T. brucei (strain 427).
Experiment: not given
Conditions: not given
In turn, `Nc1ccccc1O` [269e, 2-amino-phenol] yielded a Selectivity index of 3.4.

The same assay, now with this note: Supplementary Table 1; compound 0.5 mM; percentage of controls in the absence of compound; mean ± SD (n=3) or SE (n=2).
In the case of `CC(=O)c1ccc(-n2ccnc2)cc1` [compound 503, 1‐[4‐(1H‐imidazol‐1‐yl)phenyl]‐1‐ethanone], the “T. brucei Alamar Blue” value was 60.7 ± 7.5 percentage of controls. Turning to `CC12CC(=O)CC1(C)CC(=O)C2` (centres unmarked) [compound 324, 3a,6a‐dimethylperhydropentalene‐2,5‐dione], the “T. brucei Alamar Blue” value is reported as 88.2 ± 0.7 percentage of controls.

For `COC(=O)c1scc(C)c1Cl` [compound 551, methyl 3‐chloro‐4‐methylthiophene‐2‐carboxylate], the “T. brucei Alamar Blue” value is recorded as 108 ± 11.9 percentage of controls. The same measure, in the same setting: under `Cn1nc(-c2cccs2)cc1N` [compound 450, 1‐methyl‐3‐(2‐thienyl)‐1H‐pyrazol‐5‐amine] stands 55.3 ± 16.7 percentage of controls; under `CC(=O)c1cc(C)ccc1O` [compound 184, 1‐(2‐hydroxy‐5‐methylphenyl)ethan‐1‐one], 96.1 ± 4.8 percentage of controls. The same measure, in the same setting: under `CCOC(=O)c1sc(Cl)nc1C` [compound 672, ethyl 2‐chloro‐4‐methyl‐1,3‐thiazole‐5‐carboxylate] stands 87.2 ± 12.5 percentage of controls; under `Cn1c(C(=O)O)cc2sccc21` [compound 464, 4‐methyl‐4H‐thieno[3,2‐b]pyrrole‐5‐carboxylic acid], 82 ± 5.9 percentage of controls. Still for that read-out and setting: under `O=C(O)c1cccc2c1OCC2` [compound 297, 2,3‐dihydrobenzo[b]furan‐7‐carboxylic acid] stands 101.8 ± 16 percentage of controls; under `Cl.NCc1ccc2c(c1)CCO2` [compound 496, 2,3‐dihydrobenzo[b]furan‐5‐ylmethylamine hydrochloride], 75.4 ± 7.3 percentage of controls; under `CNCc1nn(C)c2ccccc12` [compound 401, N‐methyl‐N‐[(1‐methyl‐1H‐indazol‐3‐yl)methyl]amine], 59.8 ± 8.8 percentage of controls. `CSc1ccc(C(=O)O)s1` [compound 389, 5‐(methylthio)thiophene‐2‐carboxylic acid]: the “T. brucei Alamar Blue” value is given as 85.6 ± 16.6 percentage of controls.

Consider `CC1CCN(CC(C)(C)N)CC1` [compound 349, 2‐methyl‐1‐(4‐methylpiperidino)‐2‐propanamine], for which the “T. brucei Alamar Blue” value is 103.1 ± 7.3 percentage of controls. On the same count and under the same terms, under `FC(F)(F)C1=NCCNC=C1` [compound 295, 5‐(trifluoromethyl)‐2,3‐dihydro‐1H‐1,4‐diazepine] stands 94.6 ± 14.4 percentage of controls; under `CC(C)(N)CN1CCCC1` [compound 142, 2‐methyl‐1‐(1‐pyrrolidinyl)‐2‐propanamine], 70.6 ± 6.5 percentage of controls; under `OCc1scc2c1OCCO2` [compound 361, 2,3‐dihydrothieno[3,4‐b][1,4]dioxin‐5‐ylmethanol], 86.3 ± 8.1 percentage of controls.

As to `CC(=O)Oc1ccc(C)c2c1CCC2` [compound 541, 7‐methyl‐2,3‐dihydro‐1H‐inden‐4‐yl acetate], the “T. brucei Alamar Blue” value was 45.5 ± 23.2 percentage of controls. The same measure, in the same setting: under `c1ccc(-c2cn3c(n2)SCC3)cc1` [compound 639, 6‐phenyl‐2,3‐dihydroimidazo[2,1‐b][1,3]thiazole] stands 31.1 ± 5.8 percentage of controls; under `Cc1nc(-c2ccc(CO)cc2)cs1` [compound 667, [4‐(2‐methyl‐1,3‐thiazol‐4‐yl)phenyl]methanol], 41.7 ± 12.6 percentage of controls; under `C#CCN1CCS(=O)(=O)CC1` [compound 379, 4‐(Prop‐2‐ynyl)thiomorpholine 1,1‐dioxide], 102.9 ± 14.9 percentage of controls. The same measure, in the same setting: under `N#CCOc1ccc(C(F)(F)F)cn1` [compound 634, 2‐{[5‐(trifluoromethyl)‐2‐pyridyl]oxy}acetonitrile] stands 80.4 ± 15 percentage of controls; under `N#Cc1scc2c1OCCO2` [compound 327, 2,3‐dihydrothieno[3,4‐b][1,4]dioxine‐5‐carbonitrile], 89.7 ± 4.3 percentage of controls; under `CNCc1scc2c1OCCO2` [compound 495, N‐(2,3‐dihydrothieno[3,4‐b][1,4]dioxin‐5‐ylmethyl)‐N‐methylamine], 28.2 ± 3.2 percentage of controls. For the compound `CN(C)CCOc1ccccc1CO` [compound 593, {2‐[2‐(dimethylamino)ethoxy]phenyl}methanol], the “T. brucei Alamar Blue” value is 103.6 ± 18.7 percentage of controls. The same measure, in the same setting: under `Cc1nn(-c2ccccc2)c(C)c1CO` [compound 636, (3,5‐dimethyl‐1‐phenyl‐1H‐pyrazol‐4‐yl)methanol] stands 70.4 ± 15.2 percentage of controls; under `OCc1ccc(Cn2ccnc2)cc1` [compound 528, [4‐(1H‐imidazol‐1‐ylmethyl)phenyl]methanol], 78 ± 16 percentage of controls; under `Cc1nc(-c2ccccc2)ncc1CO` [compound 623, (4‐methyl‐2‐phenyl‐5‐pyrimidinyl)methanol], 61.8 ± 14.4 percentage of controls. Take `CNCc1ccc2c(c1)OCO2` [compound 305, N‐(1,3‐benzodioxol‐5‐ylmethyl)‐N‐methylamine]: the “T. brucei Alamar Blue” value is listed as 49.3 ± 11.2 percentage of controls. For `COC(=O)c1scc(C)c1N` [compound 354, methyl 3‐amino‐4‐methylthiophene‐2‐carboxylate], the “T. brucei Alamar Blue” value was 81.3 ± 9.1 percentage of controls. Same read-out and setting: under `OCc1ccc(Cn2cccn2)cc1` [compound 529, [4‐(1H‐pyrazol‐1‐ylmethyl)phenyl]methanol] stands 78.1 ± 10.3 percentage of controls; under `Cc1nn(C)c2sc(CO)cc12` [compound 467, (1,3‐dimethyl‐1H‐thieno[2,3‐c]pyrazol‐5‐yl)methanol], 65.6 ± 13.2 percentage of controls; under `Cn1nc(CO)cc1-c1ccccc1` [compound 525, (1‐methyl‐5‐phenyl‐1H‐pyrazol‐3‐yl)methanol], 58 ± 13.5 percentage of controls. As for `Nc1ccc2c(c1)CCCC2=O` [compound 280, 6‐amino‐1,2,3,4‐tetrahydronaphthalen‐1‐one], the “T. brucei Alamar Blue” value is recorded as 42.8 ± 6.8 percentage of controls.

As to `CCOC(=O)c1[nH]c(C)c(CC)c1C` [compound 594, ethyl 4‐ethyl‐3,5‐dimethyl‐1H‐pyrrole‐2‐carboxylate], the “T. brucei Alamar Blue” value was 32.2 ± 12.3 percentage of controls. Same read-out and setting: under `CN(C)C1(CN)CCSC1` (centres unmarked) [compound 268, 3‐(aminomethyl)‐N,N‐dimethyltetrahydro‐3‐thiophenamine] stands 57.8 ± 19.5 percentage of controls; under `CNCc1cc(-c2ccccc2)nn1C` [compound 631, N‐methyl‐N‐[(1‐methyl‐3‐phenyl‐1H‐pyrazol‐5‐yl)methyl]amine], 31 ± 6.5 percentage of controls; under `Cc1ccc(C)c(C(O)C(=O)O)c1` (centres unmarked) [compound 454, 2‐(2,5‐dimethylphenyl)‐2‐hydroxyacetic acid], 98.7 ± 11.9 percentage of controls. The same measure, in the same setting: under `OCC1CNc2ccccc2O1` (centres unmarked) [compound 307, 3,4‐dihydro‐2H‐1,4‐benzoxazin‐2‐ylmethanol] stands 76.9 ± 15.1 percentage of controls; under `COC(=O)c1cc(C)[nH]c1C` [compound 214, methyl 2,5‐dimethyl‐1H‐pyrrole‐3‐carboxylate], 35.1 ± 4.4 percentage of controls; under `Cc1cc(C(F)(F)F)c(C#N)cn1` [compound 498, 6‐methyl‐4‐(trifluoromethyl)nicotinonitrile], 102.8 ± 15.5 percentage of controls. The same measure, in the same setting: under `Nc1ccc2oc3c(c2c1)CCCC3` [compound 516, 6,7,8,9‐tetrahydrodibenzo[b,d]furan‐2‐amine] stands 36.8 ± 1.1 percentage of controls; under `Cn1nc(CO)cc1-c1cccs1` [compound 586, (1‐methyl‐5‐thien‐2‐yl‐1H‐pyrazol‐3‐yl)methanol], 71.4 ± 15.6 percentage of controls. For `N#CCCNCC1CCCO1` (centres unmarked) [compound 224, 3‐[(tetrahydrofuran‐2‐ylmethyl)amino]propanenitrile], the “T. brucei Alamar Blue” value is listed as 103.3 ± 15.4 percentage of controls. As to `NCC1COc2ccccc2O1` (centres unmarked) [compound 309, 2,3‐dihydro‐1,4‐benzodioxin‐2‐ylmethylamine], the “T. brucei Alamar Blue” value is given as 24.7 ± 6.9 percentage of controls. The same measure, in the same setting: under `COC(=O)c1sccc1O` [compound 247, methyl 3‐hydroxythiophene‐2‐carboxylate] stands 88.6 ± 3.7 percentage of controls; under `Cc1cc(C(N)=S)n(C)n1` [compound 227, 1,3‐dimethyl‐1H‐pyrazole‐5‐carbothioamide], 98.4 ± 13.7 percentage of controls.

Still in this assay, the particulars now being: T. brucei ED50 versus HeLa ED50.
On to `Nc1ccc(C(F)(F)F)cc1` [compound 270, 4‐(trifluoromethyl)aniline], for which the Selectivity index turned out to be 6.8. With `Nc1ccc(-c2ccco2)cc1` [compound 257, 4‐(2‐furyl)aniline], the Selectivity index worked out at 2.0. Compound `Nc1ccccc1-c1cccnc1` [compound 348, 2‐pyridin‐3‐ylaniline] displayed a Selectivity index of 0.6. Same read-out and setting: under `Nc1ccc(-n2cccc2)cc1` [compound 250, 4‐(1H‐pyrrol‐1‐yl)aniline] stands 17.1.

A further assay has the same test system. Briefly: microbe, parasite or virus in culture. The note with it: Trypanosoma brucei, read-out: T. brucei Alamar Blue. (The colour change of resazurin is a common sign of viable cells or microbes.)
As for `Nc1ccc(C(F)(F)F)cc1` [compound 270, 4‐(trifluoromethyl)aniline], the viability at 500 µM is 25.8 ± 6.6%. Still for that read-out and setting: under `Nc1ccc(-c2ccco2)cc1` [compound 257, 4‐(2‐furyl)aniline] stands 29.3 ± 8.5%; under `Nc1ccccc1-c1cccnc1` [compound 348, 2‐pyridin‐3‐ylaniline], 22.2 ± 5.6%; under `Nc1ccc(-n2cccc2)cc1` [compound 250, 4‐(1H‐pyrrol‐1‐yl)aniline], 32.4 ± 12.8%.

Still in this assay, the particulars now being: Trypanosoma brucei, read-out: T. brucei ED50.
Turning to `Nc1ccccc1O` [269e, 2-amino-phenol], the IC50 was 20 ± 0.3 µM.

The assay is the same for the next values; noted with them: Trypanosoma brucei, read-out: T. brucei ED50, ED50 ± SD (n = 4).
On to `Nc1ccc(C(F)(F)F)cc1` [compound 270, 4‐(trifluoromethyl)aniline], for which the IC50 is below 40 µM. Same read-out and setting: under `Nc1ccc(-c2ccco2)cc1` [compound 257, 4‐(2‐furyl)aniline] stands 56 ± 3.6 µM; under `Nc1ccccc1-c1cccnc1` [compound 348, 2‐pyridin‐3‐ylaniline], below 40 µM; under `Nc1ccc(-n2cccc2)cc1` [compound 250, 4‐(1H‐pyrrol‐1‐yl)aniline], 81 ± 5.1 µM.
